# In the supplement of paper PMC8728848:
# The other results are listed elsewhere or left out.
# Legend:
# Experiment in all cases: glycan array binding signal (z-score within array); higher = stronger binding
# Conditions in all cases: glycan notation: IUPAC condensed, linker removed
# Fuc(a1-2)Gal = target: Fuc(a1-2)Gal
# Method in brief: (§1)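 Columns mapping to the same glycan were averaged after glycan names were converted to IUPAC-condensed notation. The data come from 3228 arrays in the Consortium for Functional Glycomics database, limited to those with an available protein sequence. Binding is reported as a within-array Z-score averaged across arrays of one protein sequence and across linkers.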
# Fuc(a1-2)Gal(b1-3)GalNAc = target: Fuc(a1-2)Gal(b1-3)GalNAc
# Method in brief: as §1
# [1] = target: Fuc(a1-2)Gal(b1-3)GalNAc(a1-3)[Fuc(a1-2)]Gal(b1-4)Glc
# Method in brief: as §1
# [2] = target: Fuc(a1-2)Gal(b1-3)GalNAc(a1-3)[Fuc(a1-2)]Gal(b1-4)GlcNAc
# Method in brief: as §1
# [3] = target: Fuc(a1-2)Gal(b1-3)GalNAc(b1-3)Gal
# Method in brief: as §1
# [4] = target: Fuc(a1-2)Gal(b1-3)GalNAc(b1-3)Gal(a1-4)Gal(b1-4)Glc
# Method in brief: as §1
# [5] = target: Fuc(a1-2)Gal(b1-3)GalNAc(b1-4)[Neu5Ac(a2-3)]Gal(b1-4)Glc
# Method in brief: as §1
# Fuc(a1-2)Gal(b1-3)GlcNAc = target: Fuc(a1-2)Gal(b1-3)GlcNAc
# Method in brief: as §1
# [6] = target: Fuc(a1-2)Gal(b1-3)GlcNAc(b1-2)Man(a1-3)[Fuc(a1-2)Gal(b1-3)GlcNAc(b1-2)Man(a1-6)]Man(b1-4)GlcNAc(b1-4)GlcNAc
# Method in brief: as §1
# [7] = target: Fuc(a1-2)Gal(b1-3)GlcNAc(b1-3)Gal(b1-4)Glc
# Method in brief: as §1
# [8] = target: Fuc(a1-2)Gal(b1-3)GlcNAc(b1-3)[Fuc(a1-3)[Gal(b1-4)]GlcNAc(b1-6)]Gal(b1-4)Glc
# Method in brief: as §1
# [9] = target: Fuc(a1-2)Gal(b1-3)[Fuc(a1-4)]GlcNAc
# Method in brief: as §1
# [10] = target: Fuc(a1-2)Gal(b1-3)[Fuc(a1-4)]GlcNAc(b1-2)Man(a1-3)[Fuc(a1-2)Gal(b1-3)[Fuc(a1-4)]GlcNAc(b1-2)Man(a1-6)]Man(b1-4)GlcNAc(b1-4)GlcNAc
# Method in brief: as §1
# [11] = target: Fuc(a1-2)Gal(b1-3)[Fuc(a1-4)]GlcNAc(b1-3)[Fuc(a1-3)[Gal(b1-4)]GlcNAc(b1-6)]Gal(b1-4)Glc
# Method in brief: as §1
# [12] = target: Fuc(a1-2)Gal(b1-3)[Fuc(a1-4)]GlcNAc(b1-3)[Gal(b1-4)GlcNAc(b1-6)]Gal(b1-4)Glc
# Method in brief: as §1
# Fuc(a1-2)Gal(b1-4)Glc = target: Fuc(a1-2)Gal(b1-4)Glc
# Method in brief: as §1
# Fuc(a1-2)Gal(b1-4)Glc6S = target: Fuc(a1-2)Gal(b1-4)Glc6S
# Method in brief: as §1
# Fuc(a1-2)Gal(b1-4)GlcNAc = target: Fuc(a1-2)Gal(b1-4)GlcNAc
# Method in brief: as §1
# [13] = target: Fuc(a1-2)Gal(b1-4)GlcNAc(b1-2)Man(a1-3)[Fuc(a1-2)Gal(b1-4)GlcNAc(b1-2)Man(a1-6)]Man(b1-4)GlcNAc(b1-4)GlcNAc
# Method in brief: as §1
# [14] = target: Fuc(a1-2)Gal(b1-4)GlcNAc(b1-3)Gal(b1-4)GlcNAc
# Method in brief: as §1
# [15] = target: Fuc(a1-2)Gal(b1-4)GlcNAc(b1-3)Gal(b1-4)GlcNAc(b1-3)Gal(b1-4)GlcNAc
# Method in brief: as §1
# [16] = target: Fuc(a1-2)Gal(b1-4)GlcNAc(b1-3)GalNAc
# Method in brief: as §1
# [17] = target: Fuc(a1-2)Gal(b1-4)GlcNAc6S
# Method in brief: as §1
# [18] = target: Fuc(a1-2)Gal(b1-4)[Fuc(a1-3)]GlcNAc
# Method in brief: as §1
# [19] = target: Fuc(a1-2)Gal(b1-4)[Fuc(a1-3)]GlcNAc(b1-2)Man(a1-3)[Fuc(a1-2)Gal(b1-4)[Fuc(a1-3)]GlcNAc(b1-2)Man(a1-6)]Man(b1-4)GlcNAc(b1-4)GlcNAc
# Method in brief: as §1
# [20] = target: Fuc(a1-2)Gal(b1-4)[Fuc(a1-3)]GlcNAc(b1-3)Gal(b1-4)[Fuc(a1-3)]GlcNAc
# Method in brief: as §1
# [21] = target: Fuc(a1-2)Gal(b1-4)[Fuc(a1-3)]GlcNAc(b1-3)Gal(b1-4)[Fuc(a1-3)]GlcNAc(b1-3)Gal(b1-4)[Fuc(a1-3)]GlcNAc
# Method in brief: as §1
# Fuc(a1-2)Gal6S(b1-4)Glc = target: Fuc(a1-2)Gal6S(b1-4)Glc
# Method in brief: as §1
# [22] = target: Fuc(a1-2)Gal6S(b1-4)Glc6S
# Method in brief: as §1
# [23] = target: Fuc(a1-2)Gal6S(b1-4)GlcNAc
# Method in brief: as §1
# Fuc(a1-2)[Gal(a1-3)]Gal = target: Fuc(a1-2)[Gal(a1-3)]Gal
# Method in brief: as §1
# [24] = target: Fuc(a1-2)[Gal(a1-3)]Gal(b1-3)GlcNAc
# Method in brief: as §1
# [25] = target: Fuc(a1-2)[Gal(a1-3)]Gal(b1-3)GlcNAc(b1-2)Man(a1-3)[Fuc(a1-2)[Gal(a1-3)]Gal(b1-3)GlcNAc(b1-2)Man(a1-6)]Man(b1-4)GlcNAc(b1-4)GlcNAc
# Method in brief: as §1
# [26] = target: Fuc(a1-2)[Gal(a1-3)]Gal(b1-4)Glc
# Method in brief: as §1
# [27] = target: Fuc(a1-2)[Gal(a1-3)]Gal(b1-4)GlcNAc
# Method in brief: as §1
# [28] = target: Fuc(a1-2)[Gal(a1-3)]Gal(b1-4)GlcNAc(b1-2)Man(a1-3)[Fuc(a1-2)[Gal(a1-3)]Gal(b1-4)GlcNAc(b1-2)Man(a1-6)]Man(b1-4)GlcNAc(b1-4)GlcNAc
# Method in brief: as §1
# [29] = target: Fuc(a1-2)[Gal(a1-3)]Gal(b1-4)[Fuc(a1-3)]GlcNAc
# Method in brief: as §1
# [30] = target: Fuc(a1-2)[Gal(a1-4)]Gal(b1-4)GlcNAc
# Method in brief: as §1
# [31] = target: Fuc(a1-2)[GalNAc(a1-3)]Gal
# Method in brief: as §1
# [32] = target: Fuc(a1-2)[GalNAc(a1-3)]Gal(b1-3)GalNAc(a1-3)[Fuc(a1-2)]Gal(b1-4)GlcNAc
# Method in brief: as §1
# [33] = target: Fuc(a1-2)[GalNAc(a1-3)]Gal(b1-3)GlcNAc
# Method in brief: as §1
# [34] = target: Fuc(a1-2)[GalNAc(a1-3)]Gal(b1-3)GlcNAc(b1-2)Man(a1-3)[Fuc(a1-2)[GalNAc(a1-3)]Gal(b1-3)GlcNAc(b1-2)Man(a1-6)]Man(b1-4)GlcNAc(b1-4)GlcNAc
# Method in brief: as §1
# [35] = target: Fuc(a1-2)[GalNAc(a1-3)]Gal(b1-4)Glc
# Method in brief: as §1
# [36] = target: Fuc(a1-2)[GalNAc(a1-3)]Gal(b1-4)GlcNAc
# Method in brief: as §1
# [37] = target: Fuc(a1-2)[GalNAc(a1-3)]Gal(b1-4)GlcNAc(b1-2)Man(a1-3)[Fuc(a1-2)[GalNAc(a1-3)]Gal(b1-4)GlcNAc(b1-2)Man(a1-6)]Man(b1-4)GlcNAc(b1-4)GlcNAc
# Method in brief: as §1
binder,measurement,setting,value
"Gal 3 (Homo sapiens), P17931 (protein) MADNFSLHDALSGSGNPNPQGWPGAWGNQPAGAGGYPGASYPGAYPGQAPPGAYPGQAPPGAYHGAPGAYPGAPAPGVYPGPPSGPGAYPSSGQPSAPGAYPATGPYGAPAGPLIVPYNLPLPGGVVPRMLITILGTVKPNANILDFQRGNDVAFHFNPRFNENNRRVIVCNTKLDNNWGREERQSVFPFESGKPFKIQVLVEPDHFKVAVNDAHLLQYNHRVKKLNEISKLGISGDIDLTSASYTMI",glycan array binding signal (z-score),Fuc(a1-2)Gal,-0.39
same,glycan array binding signal (z-score),Fuc(a1-2)Gal(b1-3)GalNAc,-0.386
same,glycan array binding signal (z-score),[1],-0.389
same,glycan array binding signal (z-score),[2],0.713
same,glycan array binding signal (z-score),[3],-0.385
same,glycan array binding signal (z-score),[4],-0.387
same,glycan array binding signal (z-score),[5],-0.39
same,glycan array binding signal (z-score),Fuc(a1-2)Gal(b1-3)GlcNAc,0.228
same,glycan array binding signal (z-score),[6],-0.192
same,glycan array binding signal (z-score),[7],1.9
same,glycan array binding signal (z-score),[8],-0.332
same,glycan array binding signal (z-score),[9],-0.391
same,glycan array binding signal (z-score),[10],-0.387
same,glycan array binding signal (z-score),[11],-0.384
same,glycan array binding signal (z-score),[12],-0.331
same,glycan array binding signal (z-score),Fuc(a1-2)Gal(b1-4)Glc,-0.318
same,glycan array binding signal (z-score),Fuc(a1-2)Gal(b1-4)Glc6S,-0.385
same,glycan array binding signal (z-score),Fuc(a1-2)Gal(b1-4)GlcNAc,0.024
same,glycan array binding signal (z-score),[13],2.21
same,glycan array binding signal (z-score),[14],3.22
same,glycan array binding signal (z-score),[15],3.62
same,glycan array binding signal (z-score),[16],-0.382
same,glycan array binding signal (z-score),[17],0.333
same,glycan array binding signal (z-score),[18],-0.379
same,glycan array binding signal (z-score),[19],-0.384
same,glycan array binding signal (z-score),[20],-0.384
same,glycan array binding signal (z-score),[21],-0.387
same,glycan array binding signal (z-score),Fuc(a1-2)Gal6S(b1-4)Glc,-0.392
same,glycan array binding signal (z-score),[22],-0.388
same,glycan array binding signal (z-score),[23],-0.388
same,glycan array binding signal (z-score),Fuc(a1-2)[Gal(a1-3)]Gal,-0.389
same,glycan array binding signal (z-score),[24],2.06
same,glycan array binding signal (z-score),[25],3.84
same,glycan array binding signal (z-score),[26],1.61
same,glycan array binding signal (z-score),[27],2.5
same,glycan array binding signal (z-score),[28],5.09
same,glycan array binding signal (z-score),[29],-0.391
same,glycan array binding signal (z-score),[30],-0.392
same,glycan array binding signal (z-score),[31],-0.39
same,glycan array binding signal (z-score),[32],0.204
same,glycan array binding signal (z-score),[33],2.57
same,glycan array binding signal (z-score),[34],2.71
same,glycan array binding signal (z-score),[35],1.32
same,glycan array binding signal (z-score),[36],2.16
same,glycan array binding signal (z-score),[37],4.33
